Results reported in paper PMC9911399, “Two distinct binding modes provide the RNA-binding protein RbFox with extraordinary sequence specificity”.
Numbering of substitutions follows the chain as printed; changes in the protein carry UniProt numbers. This is one part of the list.

T1: RBFOX1 RRM (Homo sapiens, UniProt Q9NWB1 109-208)
T1 sequence: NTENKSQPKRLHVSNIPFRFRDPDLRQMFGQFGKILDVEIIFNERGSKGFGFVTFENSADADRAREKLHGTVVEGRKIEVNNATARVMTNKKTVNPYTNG

B1: UAGAAAC (DNA:RNA)
RNA: GGGAGACCGGAAUUCAGAUUGUCCUAGAAACUUAAAUCCCGUCGUAGCCACCA
DNA 1: CAATCTGAATTCCGGTCTCCC
DNA 2: TGGTGGCTACGACGGGATT
B2: CACACUC (DNA:RNA)
RNA: B1 RNA with U25C, G27C, A29C, A30U
DNA 1: CAATCTGAATTCCGGTCTCCC
DNA 2: TGGTGGCTACGACGGGATT
B3: UGCGUAC (DNA:RNA)
RNA: B1 RNA with A26G, G27C, A28G, A29U
DNA 1: CAATCTGAATTCCGGTCTCCC
DNA 2: TGGTGGCTACGACGGGATT
B4: UACGUCA (DNA:RNA)
RNA: B1 RNA with G27C, A28G, A29U, A30C, C31A
DNA 1: CAATCTGAATTCCGGTCTCCC
DNA 2: TGGTGGCTACGACGGGATT
B5: GCUUUGG (DNA:RNA)
RNA: GGGAGACCGGAAUUCAGAUUGUCCGCUUUGGUUAAAUCCCGUCGUAGCCACCA
DNA 1: CAATCTGAATTCCGGTCTCCC
DNA 2: TGGTGGCTACGACGGGATT
B6: GUGAGCA (DNA:RNA)
RNA: B1 RNA with U25G, A26U, A29G, A30C, C31A
DNA 1: CAATCTGAATTCCGGTCTCCC
DNA 2: TGGTGGCTACGACGGGATT
B7: UUACAAC (DNA:RNA)
RNA: B1 RNA with A26U, G27A, A28C
DNA 1: CAATCTGAATTCCGGTCTCCC
DNA 2: TGGTGGCTACGACGGGATT
B8: UGAUUUG (DNA:RNA)
RNA: B5 RNA with G25U, C26G, U27A, G30U
DNA 1: CAATCTGAATTCCGGTCTCCC
DNA 2: TGGTGGCTACGACGGGATT
B9: UGACGUA (DNA:RNA)
RNA: B1 RNA with A26G, G27A, A28C, A29G, A30U, C31A
DNA 1: CAATCTGAATTCCGGTCTCCC
DNA 2: TGGTGGCTACGACGGGATT
B10: UACUCUA (DNA:RNA)
RNA: B1 RNA with G27C, A28U, A29C, A30U, C31A
DNA 1: CAATCTGAATTCCGGTCTCCC
DNA 2: TGGTGGCTACGACGGGATT
B11: GGUUACA (DNA:RNA)
RNA: B5 RNA with C26G, U29A, G30C, G31A
DNA 1: CAATCTGAATTCCGGTCTCCC
DNA 2: TGGTGGCTACGACGGGATT
B12: AAUACGA (DNA:RNA)
RNA: B5 RNA with G25A, C26A, U28A, U29C, G31A
DNA 1: CAATCTGAATTCCGGTCTCCC
DNA 2: TGGTGGCTACGACGGGATT
B13: UCAACUU (DNA:RNA)
RNA: B1 RNA with A26C, G27A, A29C, A30U, C31U
DNA 1: CAATCTGAATTCCGGTCTCCC
DNA 2: TGGTGGCTACGACGGGATT
B14: UACUACG (DNA:RNA)
RNA: B1 RNA with G27C, A28U, A30C, C31G
DNA 1: CAATCTGAATTCCGGTCTCCC
DNA 2: TGGTGGCTACGACGGGATT
B15: AUAUCUU (DNA:RNA)
RNA: B5 RNA with G25A, C26U, U27A, U29C, G30U, G31U
DNA 1: CAATCTGAATTCCGGTCTCCC
DNA 2: TGGTGGCTACGACGGGATT
B16: GUACUGG (DNA:RNA)
RNA: B5 RNA with C26U, U27A, U28C
DNA 1: CAATCTGAATTCCGGTCTCCC
DNA 2: TGGTGGCTACGACGGGATT
B17: GCCCGAU (DNA:RNA)
RNA: B5 RNA with U27C, U28C, U29G, G30A, G31U
DNA 1: CAATCTGAATTCCGGTCTCCC
DNA 2: TGGTGGCTACGACGGGATT
B18: GGUCGAG (DNA:RNA)
RNA: B5 RNA with C26G, U28C, U29G, G30A
DNA 1: CAATCTGAATTCCGGTCTCCC
DNA 2: TGGTGGCTACGACGGGATT
B19: CGUUAGC (DNA:RNA)
RNA: B5 RNA with G25C, C26G, U29A, G31C
DNA 1: CAATCTGAATTCCGGTCTCCC
DNA 2: TGGTGGCTACGACGGGATT
B20: GACCAAA (DNA:RNA)
RNA: B1 RNA with U25G, G27C, A28C, C31A
DNA 1: CAATCTGAATTCCGGTCTCCC
DNA 2: TGGTGGCTACGACGGGATT

These binders were tested against T1, RBFOX1 RRM (assay: EMSA; HiTS-Eq, 1 nM pool, 10 min; buffer printed only for the single-RNA assays: 10 mM Tris pH 7.5, 150 mM NaCl, 3.4 mM EDTA, 0.001% NP-40, 30 C). Conditions: tags: His6 N-terminal (pET28a); label: 5' 32P.
In short: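 Purified wild-type or mutant RbFox RRM at increasing concentrations was equilibrated with 1 nM of 5′-radiolabelled RNA carrying 7 randomized nucleotides for 10 min in 50 µL. Unbound RNA was separated by 8% native PAGE and sequenced. Relative association constants came from read-count changes of each RNA species compared with the control reaction, normalised to the cognate motif.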

First: B1
Second: B2
The binding signal of the first is higher: 0.0111 KA relative to UGCAUGU for the first, 0.00343 KA relative to UGCAUGU for the second.

First: B3
Second: B4
The binding signal of the first is higher: 0.0181 KA relative to UGCAUGU for the first, 0.00559 KA relative to UGCAUGU for the second.

First: B5
Second: B6
The binding signal of the first is higher: 0.0206 KA relative to UGCAUGU for the first, 0.0183 KA relative to UGCAUGU for the second.

Compared with B7, B8 is higher in binding signal: 0.00317 KA relative to UGCAUGU for the first, 0.0276 KA relative to UGCAUGU for the second.

Compared with B9, B10 is lower in binding signal: 0.0165 KA relative to UGCAUGU for the first, 0.00265 KA relative to UGCAUGU for the second.

First: B11
Second: B12
The binding signal of the first is higher: 0.00439 KA relative to UGCAUGU for the first, 0.00285 KA relative to UGCAUGU for the second.

First: B13
Second: B14
The binding signal of the first is lower: 0.00236 KA relative to UGCAUGU for the first, 0.0111 KA relative to UGCAUGU for the second.

First: B15
Second: B16
The binding signal of the first is lower: 0.00164 KA relative to UGCAUGU for the first, 0.0161 KA relative to UGCAUGU for the second.

Compared with B17, B18 is lower in binding signal: 0.0157 KA relative to UGCAUGU for the first, 0.0142 KA relative to UGCAUGU for the second.

Compared with B19, B20 is lower in binding signal: 0.0114 KA relative to UGCAUGU for the first, 0.00104 KA relative to UGCAUGU for the second.
